From paper PMC4336329 (PLoS ONE, 2015)
About 14,000 (4.5%) of roughly 310,000 compounds showed an effect of 50% or more. Effects have a minus sign here. This is one part of the list.

The compounds below were run against human ether-à-go-go-related gene (hERG) potassium channel (human, UniProt Q12809) (assay: primary screen, population patch clamp on CHO cells stably expressing hERG).
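Also: peak tail current of the secondary pulse compared with the same well before compound.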

Sequence of human ether-à-go-go-related gene (hERG) potassium channel (Q12809 whole entry, looked up): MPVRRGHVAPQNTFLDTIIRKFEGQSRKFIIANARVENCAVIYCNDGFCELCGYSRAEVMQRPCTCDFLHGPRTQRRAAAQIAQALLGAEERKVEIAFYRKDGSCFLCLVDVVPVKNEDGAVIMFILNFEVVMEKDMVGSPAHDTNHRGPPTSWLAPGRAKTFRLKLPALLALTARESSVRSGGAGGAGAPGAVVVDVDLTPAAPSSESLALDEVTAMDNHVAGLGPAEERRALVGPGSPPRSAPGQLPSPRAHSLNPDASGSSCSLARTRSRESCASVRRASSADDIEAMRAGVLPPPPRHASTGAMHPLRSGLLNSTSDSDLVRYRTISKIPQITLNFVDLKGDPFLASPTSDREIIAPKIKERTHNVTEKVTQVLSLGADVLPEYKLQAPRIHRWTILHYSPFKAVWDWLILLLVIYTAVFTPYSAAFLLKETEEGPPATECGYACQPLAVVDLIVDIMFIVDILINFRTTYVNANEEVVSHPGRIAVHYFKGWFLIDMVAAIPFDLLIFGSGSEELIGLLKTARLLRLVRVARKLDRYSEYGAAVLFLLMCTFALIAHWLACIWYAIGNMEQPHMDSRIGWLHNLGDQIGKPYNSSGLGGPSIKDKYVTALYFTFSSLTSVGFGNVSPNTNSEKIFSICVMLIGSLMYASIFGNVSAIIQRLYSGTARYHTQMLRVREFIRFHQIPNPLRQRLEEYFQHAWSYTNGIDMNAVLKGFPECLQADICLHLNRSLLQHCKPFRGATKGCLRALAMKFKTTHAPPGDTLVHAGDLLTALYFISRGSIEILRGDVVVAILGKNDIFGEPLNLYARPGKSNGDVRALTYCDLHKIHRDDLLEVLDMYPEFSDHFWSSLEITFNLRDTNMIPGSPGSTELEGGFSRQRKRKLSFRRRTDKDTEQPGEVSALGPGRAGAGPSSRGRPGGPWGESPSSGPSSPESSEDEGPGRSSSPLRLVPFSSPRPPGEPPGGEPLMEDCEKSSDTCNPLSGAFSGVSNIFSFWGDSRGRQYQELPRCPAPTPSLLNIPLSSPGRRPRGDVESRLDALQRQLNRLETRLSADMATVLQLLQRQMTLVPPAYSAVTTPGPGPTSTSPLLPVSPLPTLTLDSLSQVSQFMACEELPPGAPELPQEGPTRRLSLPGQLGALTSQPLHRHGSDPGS

| SMILES | hERG current change (%, negative = inhibition) at 10uM [%] |
| --- | --- |
| CCc1nnc(SCc2ccc([N+](=O)[O-])cc2)nc1CC | -32.7 |
| C/C=C/C=C/C(=O)OC(C)C(=O)Nc1cc([N+](=O)[O-])ccc1OC (stereo not drawn) | -12.5 |
| COC(=O)c1cnn2c(C(F)(F)F)cc(-c3ccc(F)cc3)nc12 | -8.38 |
| CC1=CC(C)(C)N(C(=O)CSc2nnc(-c3ccc(C)cc3)o2)c2ccc(C)cc21 | -11.5 |
| CCOC(=O)CN(Cc1sccc1C)C(=O)Nc1ccc(OCC)cc1 | -9.03 |
| CC(=O)Nc1ccnc(-c2cccnc2)n1 | 7.89 |
| CC(C)CCn1nnnc1CN1CCN(C(=O)c2ccco2)CC1.Cl | 16.8 |
| COCC(=O)N1CCN(c2cccc(Cl)c2)CC1 | -8.46 |
| COc1ccc(/C=N/NC(=O)c2ccc(CSc3nncn3C)cc2)cc1OC | 6.26 |
| CCN(CC(=O)Nc1ccc(OC)c(Cl)c1)CC(=O)NC(C)C | 9.17 |
| COCC(C)NC(=O)c1noc2c1CCc1cc(OC)ccc1-2 (stereo not drawn) | -25.9 |
| CN1/C(=C\C(=O)C[n+]2cccc(C(N)=O)c2)C(C)(C)c2ccccc21.[Cl-] | 22.4 |
| COCCNc1ccc(N2C(=O)CCCC2=O)cc1[N+](=O)[O-] | 19 |
| Cn1c(=O)n(C)c2cc([N+](=O)[O-])c(N3CCN(S(C)(=O)=O)CC3)cc21 | 6.17 |
| C/C(CC(=O)Nc1cccnc1)=N\NC(=O)c1ccc([N+](=O)[O-])c(Cl)c1 | -21.3 |
| CCOc1cc(C(=O)Nc2cc(F)ccc2C)ccc1OCC(=O)N1CCOCC1 | -17.8 |
| Cc1ccc(Oc2ccc(NC(=O)CSc3n[nH]c(N)n3)cc2)cc1 | -1.71 |
| CN1CCC23c4ccccc4NC1C21CCN(C)C3Nc2ccccc21 | 0.813 |
| CCOc1ccc(C(=O)NCC(=O)N2CCCCCCC2)cc1 | -9.52 |
| CCOc1ccc(NC(=O)CN(C2CCCCC2)S(C)(=O)=O)cc1 | -15.6 |
| COc1ccccc1-c1c(C#N)c(N)nc2c1CCc1ccccc1-2 | 37.4 |
| COc1ccccc1/C=C/CN1CCCC(CO)(Cc2cccc(Cl)c2)C1 (stereo not drawn) | -69.6 |

| SMILES | hERG current change (%, negative = inhibition) at 10uM [%] |
| --- | --- |
| COc1ccc(C(=O)COC(=O)CCC(=O)Nc2ccc(C(C)=O)cc2)cc1 | 6.24 |
| COc1ccc(C(=O)NCCc2cnc[nH]2)cc1OC | 17.2 |
| Clc1ccc(C2=Nn3c(nnc3-c3cccnc3)SC2)s1 | -11.7 |
| CC(=O)Oc1ccc(/C=C/c2nc3ccccc3c(=O)o2)cc1 | 20.2 |
| Cn1c(/C(C#N)=C(\O)CN2CCN(Cc3ccccc3)CC2)nc2ccccc21 | -40.1 |
| CC(=O)C1=C(O)C(=O)N(Cc2cccnc2)C1c1ccc(C(C)C)cc1 (stereo not drawn) | 17.1 |
| O=C(NCCCN1CCCC1=O)C1CCN(S(=O)(=O)c2cccc(C(F)(F)F)c2)CC1 | 1.22 |
| COc1ccc(CNC(=O)[C@H](CCSC)NC(=O)N2CCn3c2nc2ccccc23)cc1 | -38.7 |
| O=C(CCCOc1ccc(Cl)cc1Cl)Nc1ccccc1C(=O)O | 14 |
| CC1CC(C)CN(C(=O)CCNC(=O)c2ccccc2Cl)C1 (stereo not drawn) | 1.26 |
| CCc1nnc(NC(=O)CSc2nc3cc(OC)ccc3cc2C)s1 | 3.85 |
| Cc1ccc2[nH]c(=O)cc(C(=O)OC(C)C)c2c1 | -3.4 |
| COc1ccc(-c2cc(C(F)(F)F)nc(SCC(N)=O)n2)cc1 | -0.382 |
| Cc1ccc(NC(=O)C(=O)c2cn(CC(=O)N3CCCCC3)c3ccccc23)cc1 | -6.98 |
| COC(=O)c1ccc(OC(=O)c2ccc(OC)c(OC)c2)c(OC)c1 | 15.6 |
| Cc1ccc(C(=O)CN2C(=O)NC3(CCc4ccccc43)C2=O)c(C)c1 (stereo not drawn) | -19.3 |
| Cc1ccc(-n2ccn(CC(=O)NCCc3ccccc3)c(=O)c2=O)cc1C | 6.32 |
| O=C1CC(N2CCN(c3cccc(C(F)(F)F)c3)CC2)C(=O)N1c1ccccc1 (stereo not drawn) | 26.4 |
| CC(=O)Nc1ccc(OCC(O)CN2CCN(c3ccc(C)c(Cl)c3)CC2)cc1 (stereo not drawn) | -27.7 |
| COc1ccccc1C(=O)Nc1c(C(=O)N(CCN(C)C)Cc2ccco2)oc2ccccc12 | -82.7 |
| COc1ccc(C(C)=O)cc1CS(=O)(=O)CC(=O)NCCc1c[nH]c2ccccc12 | -10.6 |
| O=C(O)c1ccc(COc2ccccc2/C=C2\NC(=O)N(Cc3ccc(F)cc3)C2=O)cc1 | 6.56 |

| SMILES | hERG current change (%, negative = inhibition) at 10uM [%] |
| --- | --- |
| CSCC[C@H](N)C(=O)N1CCC(C(=O)N[C@H](C)C(=O)Nc2ccc(C(C)C)cc2)CC1 | 12.3 |
| COc1cc(/C=C2\SC(=Nc3ccc(O)cc3)NC2=O)cc(OC)c1O | 2.49 |
| O=C(c1nsc(Cl)c1Cl)N1CCCCC1 | -6.44 |
| Cc1ccc(C)c(S(=O)(=O)N2CCN(C(=O)c3n[nH]c(=O)c4ccccc34)CC2)c1 | 2.17 |
| O=C1/C(=C/c2cccs2)Cc2ccccc21 | 17.2 |
| NS(=O)(=O)c1ccc(CCNC(=O)C(=O)NCC2OCCN2S(=O)(=O)c2ccc(F)cc2)cc1 (stereo not drawn) | 22.3 |
| COc1ccc(CC(=O)Nc2sc3c(c2C(N)=O)CCCC3)cc1OC | 6.32 |
| O=C(NC1CC1)C1=C[C@H](c2ccc(C(F)(F)F)cc2)C[C@H](OCc2ccc(CO)cc2)O1 | -42.7 |
| Cn1c(=O)c2c(SCc3ccccc3)nc(C3CC3)nc2n(C)c1=O | 2.43 |
| CC1CCC(n2c(=S)[nH]c3ccccc3c2=O)CC1 (stereo not drawn) | 9.43 |
| COc1ccc(NC(=O)CC2(CC(=O)O)CCCC2)cc1 | 11.3 |
| CCn1c(C)[n+](CC)c2ccc(C(=O)N(C)c3ccccc3)cc21.[I-] | 37.4 |
| O=C(CCC(=O)N1CCSc2ccccc21)NCc1cccc(Cl)c1 | -14.6 |
| CSc1ccccc1Sc1cc(C(=O)O)c2ccccc2n1 | 13.4 |
| CN(CCOc1ccc(Cl)cc1)C(=O)CN1C(=O)NC2(CCCC2)C1=O | -11.5 |
| C=CCN(c1ccccc1)S(=O)(=O)c1cccc(C(=O)N2CCN(c3ncccn3)CC2)c1 | -33.9 |
| CC(C)(C)c1ccc(S(=O)(=O)N2CCN(CC(=O)NC(=O)NC3CCCCC3)CC2)cc1 | -5.19 |
| NNc1nc2c(Cl)ccc(Cl)c2s1 | 18.6 |
| COc1ccc(/C=C(/Sc2nnc(-c3ccc(Cl)cc3)o2)C(=O)O)cc1 | 22.1 |
| Cc1cc([N+](=O)[O-])nn1CC(=O)NCc1ccc(Cl)cc1 | -19.2 |
| CCOc1ccc(C(=O)NNC(=O)c2cc(S(=O)(=O)N3CCOCC3)ccc2Cl)cc1 | -24.4 |
| COc1cccc(NC(=O)CNCc2ccccc2)c1.Cl | 26.3 |

| SMILES | hERG current change (%, negative = inhibition) at 10uM [%] |
| --- | --- |
| Cc1ccc(S(=O)(=O)NNC(=O)c2sc3nc(C)cc(C)c3c2-n2cccc2)cc1 | -9.46 |
| COCc1cc(C)nc(SCC[N+](C)(C)CC(=O)Nc2ccccc2)c1C#N.[Cl-] | 4.03 |
| CCN1CCN(Cc2oc(CO)cc(=O)c2O)CC1 | -4.6 |
| O=C(NCc1cccnc1)C1CCN(S(=O)(=O)N2CCC3(CC2)OCCO3)CC1 | -11 |
| CNc1ncc(C(=O)c2ccccc2)s1 | -1.56 |
| O=C(CSc1nnc(-c2cccnc2)n1CCN1CCCCC1)Nc1cccc(Cl)c1 | -79.8 |
| CCc1ccc(C(=O)NCc2cccs2)s1 | -6.35 |
| CCc1ccc(/C=C2\SC(=S)N(CCC(=O)NCCCN3CCOCC3)C2=O)cc1 | -39.3 |
| O=C(CC(=O)Nc1ccc(F)cc1)Nc1ccc(F)cc1 | 16.8 |
| O=C(NCCCN1CCCC1=O)c1cc2nc(-c3ccco3)cc(C(F)(F)F)n2n1 | 1.05 |
| O=C(OCc1ccccc1)c1cccnc1Cl | -22.6 |
| Cc1cccc(OCCn2c(=O)oc3ccc(C)cc32)c1 | 5.77 |
| CCc1ccccc1NC(=O)CCNS(=O)(=O)c1cc(Br)cnc1N | -2.58 |
| O=c1cc(N2CCN(c3ccccc3)CC2)[nH]c(=O)n1Cc1ccc(F)cc1 | -25.9 |
| CCOC(=O)c1sc(=NC(=O)c2ccc(S(=O)(=O)N3CC(C)OC(C)C3)cc2)n(C)c1C (stereo not drawn) | 0.13 |
| O=C(CCNC(=O)N1CCn2c1nc1ccccc12)NCc1ccccc1 | 2.88 |
| Cc1ccc(N=Nc2c(N)nn(-c3ccccc3)c2N)cc1 | 0.257 |
| COCCn1cc(C(=O)NCCCN2CCC(C)CC2)c2c3ccccc3n(C)c2c1=O | -9.38 |
| COc1ccc(CCNC(=O)COC(=O)c2ccc(N3CCCC3=O)cc2)cc1 | 17.2 |
| O=C(Cn1c(=O)oc2ccccc21)Nc1ccc2c(c1)OCCO2 | -26.9 |
| O=S(=O)(NCCc1ccc(F)cc1)c1cccc2cccnc12 | -0.538 |
